Structures can show the parent of a compound that is named as a salt. Where two headings read alike, the source gives them in different places.
Target: T1, R. norvegicus MCT1 (F360C) (UniProt P36035+P53987, F360C)
T1 sequence (P36035+P53987 with tags, fused parts or gaps P53987:F360C): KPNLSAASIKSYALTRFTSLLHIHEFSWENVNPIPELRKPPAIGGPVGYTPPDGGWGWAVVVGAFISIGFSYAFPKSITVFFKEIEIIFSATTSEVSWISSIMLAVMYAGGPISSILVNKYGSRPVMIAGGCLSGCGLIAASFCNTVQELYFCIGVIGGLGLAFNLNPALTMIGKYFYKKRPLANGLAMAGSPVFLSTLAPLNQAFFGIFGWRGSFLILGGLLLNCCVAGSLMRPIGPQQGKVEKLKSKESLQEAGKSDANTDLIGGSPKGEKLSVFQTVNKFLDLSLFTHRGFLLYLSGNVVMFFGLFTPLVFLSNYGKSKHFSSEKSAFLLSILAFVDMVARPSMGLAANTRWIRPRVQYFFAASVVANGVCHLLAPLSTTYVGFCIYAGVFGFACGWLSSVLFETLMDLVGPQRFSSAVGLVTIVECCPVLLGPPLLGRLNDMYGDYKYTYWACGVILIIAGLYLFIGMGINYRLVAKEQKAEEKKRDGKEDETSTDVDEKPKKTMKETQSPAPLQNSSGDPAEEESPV
Format: cell-based

| Compound | Fraction (10 μM) | Percent AZD3965 (10 μM) | Z.score (10 μM) | Percent AZD3965 | Day1 | Day2 | Fraction | Z.score | other results |
| --- | --- | --- | --- | --- | --- | --- | --- | --- | --- |
| CCCc1c(-c2ccc(O)cc2)nn(-c2ccc(O)cc2)c1-c1ccc(O)cc1 [listing 1 of 2 here] | 0.1484 | 98.6204% | -5.549 | – | – | – | – | – | – |
| Cc1ccc(S(=O)(=O)N[C@@H](Cc2ccccc2)C(=O)CCl)cc1 | – | – | – | 72.7675% | – | – | – | – | – |
| CCCc1c(-c2ccc(O)cc2)nn(-c2ccc(O)cc2)c1-c1ccc(O)cc1 [listing 2 of 2 here] | – | – | – | – | 0.1177 | 0.7933 | 0.1484 | -5.549 | Percent: 98.6204% |
| O=C(/C=C/c1ccc(O)cc1)c1ccccc1O [2',4-DIHYDROXYCHALCONE] | 0.1914 | 91.8807% | -5.661 | – | – | – | – | – | – |
| CC(C)Cn1c(=O)n(C)c(=O)c2[nH]cnc21 [3-Isobutyl-1-methylxanthine, reference compound] | – | – | – | – | – | – | – | – | Day1 (OD600 after 24 hours non-permissive dark conditions): 0.5765; Day2 (OD600 after additional 24 hours permissive conditions): 0.8308; Fraction (growth in non-permissive phase divided by growth in permissive phase) (10 μM): 0.6939; Percent (percent AZD3965 score) (10 μM): -6.283%; Z-score (10 μM): 0.4262 |
| O=C(/C=C/c1ccccc1)c1ccc(O)cc1 [4'-HYDROXYCHALCONE] | 0.403 | 53.1668% | -4.432 | – | 0.3202 | 0.7945 | – | – | – |
| O=C1CC(c2ccc(O)cc2)Oc2ccccc21 (stereo not drawn) [4'-HYDROXYFLAVANONE] | 0.2037 | 86.9305% | -4.32 | – | – | – | – | – | – |
| O=C(/C=C/c1ccc(O)cc1)c1ccccc1 [4-hydroxychalcone] | 0.1662 | 96.6471% | -5.954 | – | 0.1213 | 0.7298 | 0.1662 | -5.954 | Percent: 96.6471% |
| N#Cc1c(O)c2c(-c3ccc(-c4ccccc4O)cc3)csc2[nH]c1=O [A-769662] | – | – | – | 67.7008% | 0.2581 | 0.7937 | 0.3252 | -3.529 | Percent: 67.7008% |
| CC[n+]1c(/C=C/C=C2/N(C)c3ccccc3C2(C)C)sc2ccccc21.[I-] [AC-93253 iodide] | 0.09381 | 109.58% | -6.166 | – | 0.0788 | 0.84 | – | – | – |
| CCOC(=O)[C@H](C)C[C@@H](Cc1ccc(-c2ccccc2)cc1)NC(=O)CCC(=O)O [AHU377] | – | – | – | 19.5836% | 0.5557 | 0.8355 | 0.6651 | -3.326 | Percent: 19.5836% |
| Nc1c2ccccc2nc2ccccc12 [AMINACRINE] | – | – | – | 41.534% | 0.4189 | 0.8675 | 0.4829 | -3.143 | – |
| Br.Br.N=C(N)SCCN [AMINOETHYLISOTHIOUREA DIHYDROBROMIDE] | 0.2186 | 83.8553% | -4.168 | – | 0.2008 | 0.9187 | – | – | – |
| COc1ccc([C@@H](C)C(=O)c2ccc(O)cc2O)cc1 [ANGOLENSIN (R)] | 0.4554 | 43.3447% | -3.613 | – | – | – | – | – | – |
| C[C@@H]1CC[C@H]2[C@@H](C)C(=O)O[C@@H]3O[C@@]4(C)CC[C@@H]1[C@]32OO4 [ARTEMISININ] | 0.3524 | 63.2237% | -3.1904 | – | 0.289 | 0.8202 | – | – | – |
| O=C1NC(=O)/C(=C/c2ccc(-c3ccc(F)cc3O)o2)S1 [AS-252424] | 0.4139 | 43.404% | -3.172 | – | 0.3528 | 0.8524 | – | – | – |
| O=C(O)COC(=O)Cc1ccccc1Nc1c(Cl)cccc1Cl [Aceclofenac] | – | – | – | 32.7797% | – | – | – | – | Z-score: -1.654 |
| COc1ccc2c(c1)c(CC(=O)OCC(=O)O)c(C)n2C(=O)c1ccc(Cl)cc1 [Acemetacin] | – | – | – | 12.0016% | – | – | – | – | Z-score: -0.6058 |
| CC(=O)Nc1ccc(O)cc1 [Acetaminophen] | – | – | – | -5.341% | – | – | – | – | Z-score: 0.28 |
| CC(=O)Nc1ccc(OC(=O)c2ccccc2O)cc1 [Acetaminosalol] | – | – | – | -5.36% | – | – | – | – | Z-score: 0.2703 |
| N.S=C(S)N1CCCC1 [Ammonium pyrrolidinedithiocarbamate] | – | – | – | 48.1785% | 0.3912 | 0.8992 | 0.4351 | -3.255 | – |

| Compound | Fraction (10 μM) | Percent AZD3965 (10 μM) | Z.score (10 μM) | Percent AZD3965 | Day1 | Day2 | Fraction | Z.score | other results |
| --- | --- | --- | --- | --- | --- | --- | --- | --- | --- |
| COc1ccc([C@@H](C)C(=O)c2ccc(O)cc2O)cc1 [Angolesin] | – | – | – | – | 0.3653 | 0.8022 | 0.4554 | -3.613 | Percent: 43.3447% |
| O=c1cc(-c2ccc(O)cc2)oc2cc(O)cc(O)c12 [Apigenin] | 0.38 | 50.3113% | -3.677 | – | 0.3196 | 0.841 | 0.38 | -3.677 | Percent: 50.3113% |
| CO[C@H]1O[C@@H]2O[C@@]3(C)CC[C@H]4[C@H](C)CC[C@@H]([C@H]1C)[C@@]24OO3 [Artemether] | 0.3355 | 63.7045% | -3.201 | – | 0.2584 | 0.7701 | – | – | – |
| CC(=O)Oc1ccccc1C(=O)O [Aspirin, reference compound] | – | – | – | -5.902% | – | – | – | – | Z-score: 0.3904 |
| CC(C)c1c(C(=O)Nc2ccccc2)c(-c2ccccc2)c(-c2ccc(F)cc2)n1CC[C@@H](O)C[C@@H](O)CC(=O)O [Atorvastatin calcium salt trihydrate] | 0.3298 | 60.5626% | -4.426 | – | – | – | – | – | – |
| CC(C)c1c(C(=O)Nc2ccccc2)c(-c2ccccc2)c(-c2ccc(F)cc2)n1CC[C@@H](O)C[C@@H](O)CC(=O)O [Atorvastatin] | – | – | – | – | 0.2862 | 0.8679 | 0.3298 | -4.426 | Percent: 60.5626% |
| Cc1ccc(S(=O)(=O)/C=C/C#N)cc1 [BAY 11-7082 (BAY 11-7821)] | – | – | – | 99.1029% | 0.142 | 0.9047 | 0.157 | -4.054 | – |
| CCc1oc2ccccc2c1C(=O)c1cc(Br)c(O)c(Br)c1 [BENZBROMARONE] | – | – | – | 28.6488% | 0.4409 | 0.7738 | 0.5698 | -3.446 | – |
| COc1ccc(-c2coc3cc(OC(C)=O)cc(OC(C)=O)c3c2=O)cc1 [BIOCHANIN A DIACETATE] | 0.4741 | 39.8371% | -3.3205 | – | 0.3766 | 0.7944 | – | – | – |
| COc1ccc(-c2coc3cc(O)cc(O)c3c2=O)cc1 [BIOCHANIN A] | 0.1878 | 92.5667% | -5.703 | – | – | – | – | – | – |
| Cc1ccc(S(=O)(=O)/C=C/C#N)cc1 [Bay 11-7082] | – | – | – | 94.5722% | 0.1691 | 0.925 | 0.1828 | -6.39 | – |
| CN(C)CCCOc1nn(Cc2ccccc2)c2ccccc12 [Benzydamine] | – | – | – | 0.977% | – | – | – | – | Z-score: -0.1176 |
| COc1ccc(-c2coc3cc(O)cc(O)c3c2=O)cc1 [Biochanin A] | – | – | – | – | 0.1519 | 0.809 | 0.1878 | -5.703 | Percent: 92.5667% |
| O=C(/C=C/c1ccc(O)cc1)CC(=O)/C=C/c1ccc(O)cc1 [Bisdemethoxycurcumin] | 0.2689 | 74.3976% | -4.186 | – | 0.2019 | 0.7507 | 0.2689 | -4.186 | Percent: 74.3976% |
| Nc1c(CC(=O)O)cccc1C(=O)c1ccc(Br)cc1 [Bromfenac] | – | – | – | -1.725% | – | – | – | – | Z-score: 0.12 |
| CCCCOc1ccc(CC(=O)NO)cc1 [Bufexamac] | – | – | – | 41.7896% | – | – | – | – | Z-score: -2.109 |
| C=CC(C1=CC(=O)C(OC)=CC1=O)c1ccc(O)cc1 (stereo not drawn) [DALBERGIONE, 4-METHOXY-4'-HYDROXY-] | 0.1989 | 90.4644% | -5.573 | – | – | – | – | – | – |
| C=CC(C1=CC(=O)C=CC1=O)c1ccccc1 (stereo not drawn) [DALBERGIONE] | 0.4165 | 49.2593% | -3.0349 | – | – | – | – | – | – |
| COc1ccc2c(c1)OCc1c-2oc2cc(OC)ccc12 [DEHYDROVARIABILIN] | 0.3152 | 69.6526% | -5.806 | – | – | – | – | – | – |
| C[C@@H]1CC[C@@]2(OC1)O[C@H]1[C@@H](O)[C@H]3[C@@H]4CC[C@H]5C[C@@H](O[C@@H]6O[C@H](CO)[C@H](O[C@@H]7O[C@H](CO)[C@@H](O)[C@H](O[C@@H]8OC[C@@H](O)[C@H](O)[C@H]8O)[C@H]7O[C@@H]7O[C@H](CO)[C@H](O)[C@H](O[C@@H]8O[C@H](CO)[C@@H](O)[C@H](O)[C@H]8O)[C@H]7O)[C@H](O)[C@H]6O)[C@H](O)C[C@]5(C)[C@H]4CC[C@]3(C)[C@H]1[C@@H]2C [DIGITONIN] | 0.1212 | 105.169% | -6.479 | – | – | – | – | – | – |

From publication PMC11637378, “Optogenetic screening of MCT1 activity implicates a cluster of non-steroidal anti-inflammatory drugs (NSAIDs) as inhibitors of lactate transport” (PLOS ONE, 2024)
